Our source for the binding values is publication PMC12528744.

Protein sequences, listed by entry. Tags and fused reporters are not part of them. Lines headed by an entry give the natural chain unless they say otherwise; changes in a name come on top. Chains listed by the source or under a name are the forms on record and can include a tag or linker.
UniProt P42224: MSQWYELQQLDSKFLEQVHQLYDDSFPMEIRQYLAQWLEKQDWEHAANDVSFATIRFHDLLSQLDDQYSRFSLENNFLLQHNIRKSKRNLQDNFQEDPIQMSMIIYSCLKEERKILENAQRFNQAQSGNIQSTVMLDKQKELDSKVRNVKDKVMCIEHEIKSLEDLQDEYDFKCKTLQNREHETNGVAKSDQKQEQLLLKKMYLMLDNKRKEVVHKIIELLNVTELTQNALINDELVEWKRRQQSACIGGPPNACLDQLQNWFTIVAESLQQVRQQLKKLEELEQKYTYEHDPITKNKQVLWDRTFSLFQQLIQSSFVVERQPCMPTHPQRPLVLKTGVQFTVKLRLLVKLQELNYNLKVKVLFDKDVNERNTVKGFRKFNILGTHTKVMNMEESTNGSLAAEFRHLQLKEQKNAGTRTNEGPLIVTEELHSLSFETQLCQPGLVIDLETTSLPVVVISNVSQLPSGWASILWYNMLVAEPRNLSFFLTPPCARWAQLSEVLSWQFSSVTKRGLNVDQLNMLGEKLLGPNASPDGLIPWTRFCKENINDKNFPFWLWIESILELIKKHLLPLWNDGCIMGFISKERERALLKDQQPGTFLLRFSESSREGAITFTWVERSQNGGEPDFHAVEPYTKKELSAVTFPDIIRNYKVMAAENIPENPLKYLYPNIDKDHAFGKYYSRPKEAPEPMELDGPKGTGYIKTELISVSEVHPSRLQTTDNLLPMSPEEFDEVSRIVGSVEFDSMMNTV
UniProt O96019: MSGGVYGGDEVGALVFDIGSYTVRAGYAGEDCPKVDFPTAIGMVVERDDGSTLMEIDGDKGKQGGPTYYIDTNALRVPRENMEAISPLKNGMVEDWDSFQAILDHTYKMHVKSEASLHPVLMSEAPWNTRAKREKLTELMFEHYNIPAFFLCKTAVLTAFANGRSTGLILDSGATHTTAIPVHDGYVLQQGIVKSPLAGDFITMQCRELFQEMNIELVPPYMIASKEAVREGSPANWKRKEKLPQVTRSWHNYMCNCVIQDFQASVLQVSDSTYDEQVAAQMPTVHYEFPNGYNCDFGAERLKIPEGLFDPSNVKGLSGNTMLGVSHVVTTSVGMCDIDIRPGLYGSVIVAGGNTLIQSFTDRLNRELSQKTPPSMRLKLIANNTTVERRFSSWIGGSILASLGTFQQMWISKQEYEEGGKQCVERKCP
UniProt Q9NPF5: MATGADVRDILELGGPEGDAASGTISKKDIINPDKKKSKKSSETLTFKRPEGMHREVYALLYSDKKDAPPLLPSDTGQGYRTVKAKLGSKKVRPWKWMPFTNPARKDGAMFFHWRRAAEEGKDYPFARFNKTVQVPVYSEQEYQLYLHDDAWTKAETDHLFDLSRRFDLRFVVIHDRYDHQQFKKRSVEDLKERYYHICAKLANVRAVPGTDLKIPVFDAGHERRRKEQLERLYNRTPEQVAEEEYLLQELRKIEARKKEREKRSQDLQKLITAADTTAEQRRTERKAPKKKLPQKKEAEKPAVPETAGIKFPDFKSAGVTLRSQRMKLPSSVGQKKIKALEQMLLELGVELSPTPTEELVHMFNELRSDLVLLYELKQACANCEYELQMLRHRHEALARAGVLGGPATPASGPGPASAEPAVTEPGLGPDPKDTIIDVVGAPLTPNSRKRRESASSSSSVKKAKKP
UniProt O00505: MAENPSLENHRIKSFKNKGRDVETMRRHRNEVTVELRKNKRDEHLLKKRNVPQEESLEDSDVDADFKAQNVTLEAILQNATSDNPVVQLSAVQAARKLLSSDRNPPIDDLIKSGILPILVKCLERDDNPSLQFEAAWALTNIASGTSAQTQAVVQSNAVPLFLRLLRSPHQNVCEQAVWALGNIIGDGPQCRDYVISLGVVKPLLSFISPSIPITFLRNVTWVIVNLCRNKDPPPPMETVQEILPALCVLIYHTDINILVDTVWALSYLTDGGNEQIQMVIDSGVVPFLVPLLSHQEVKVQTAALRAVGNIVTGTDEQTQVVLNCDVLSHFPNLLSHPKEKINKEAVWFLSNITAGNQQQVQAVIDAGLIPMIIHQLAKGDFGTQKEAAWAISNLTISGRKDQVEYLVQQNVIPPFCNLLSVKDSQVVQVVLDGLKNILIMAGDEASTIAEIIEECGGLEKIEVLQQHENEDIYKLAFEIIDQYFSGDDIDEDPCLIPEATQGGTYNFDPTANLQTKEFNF
UniProt P52294: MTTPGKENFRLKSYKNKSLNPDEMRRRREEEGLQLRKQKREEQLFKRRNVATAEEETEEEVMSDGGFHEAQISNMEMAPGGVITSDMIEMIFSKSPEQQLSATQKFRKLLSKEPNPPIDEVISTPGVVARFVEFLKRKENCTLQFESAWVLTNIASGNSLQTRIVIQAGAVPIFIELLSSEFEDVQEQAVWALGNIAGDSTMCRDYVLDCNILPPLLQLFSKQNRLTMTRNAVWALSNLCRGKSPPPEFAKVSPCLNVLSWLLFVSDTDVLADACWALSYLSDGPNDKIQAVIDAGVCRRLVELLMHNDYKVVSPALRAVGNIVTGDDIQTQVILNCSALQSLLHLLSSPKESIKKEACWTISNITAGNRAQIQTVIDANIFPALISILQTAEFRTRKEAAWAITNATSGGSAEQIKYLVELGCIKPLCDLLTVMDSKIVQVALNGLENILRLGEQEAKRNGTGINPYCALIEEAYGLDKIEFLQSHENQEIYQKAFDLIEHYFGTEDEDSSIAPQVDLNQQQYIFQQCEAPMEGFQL
UniProt P51532: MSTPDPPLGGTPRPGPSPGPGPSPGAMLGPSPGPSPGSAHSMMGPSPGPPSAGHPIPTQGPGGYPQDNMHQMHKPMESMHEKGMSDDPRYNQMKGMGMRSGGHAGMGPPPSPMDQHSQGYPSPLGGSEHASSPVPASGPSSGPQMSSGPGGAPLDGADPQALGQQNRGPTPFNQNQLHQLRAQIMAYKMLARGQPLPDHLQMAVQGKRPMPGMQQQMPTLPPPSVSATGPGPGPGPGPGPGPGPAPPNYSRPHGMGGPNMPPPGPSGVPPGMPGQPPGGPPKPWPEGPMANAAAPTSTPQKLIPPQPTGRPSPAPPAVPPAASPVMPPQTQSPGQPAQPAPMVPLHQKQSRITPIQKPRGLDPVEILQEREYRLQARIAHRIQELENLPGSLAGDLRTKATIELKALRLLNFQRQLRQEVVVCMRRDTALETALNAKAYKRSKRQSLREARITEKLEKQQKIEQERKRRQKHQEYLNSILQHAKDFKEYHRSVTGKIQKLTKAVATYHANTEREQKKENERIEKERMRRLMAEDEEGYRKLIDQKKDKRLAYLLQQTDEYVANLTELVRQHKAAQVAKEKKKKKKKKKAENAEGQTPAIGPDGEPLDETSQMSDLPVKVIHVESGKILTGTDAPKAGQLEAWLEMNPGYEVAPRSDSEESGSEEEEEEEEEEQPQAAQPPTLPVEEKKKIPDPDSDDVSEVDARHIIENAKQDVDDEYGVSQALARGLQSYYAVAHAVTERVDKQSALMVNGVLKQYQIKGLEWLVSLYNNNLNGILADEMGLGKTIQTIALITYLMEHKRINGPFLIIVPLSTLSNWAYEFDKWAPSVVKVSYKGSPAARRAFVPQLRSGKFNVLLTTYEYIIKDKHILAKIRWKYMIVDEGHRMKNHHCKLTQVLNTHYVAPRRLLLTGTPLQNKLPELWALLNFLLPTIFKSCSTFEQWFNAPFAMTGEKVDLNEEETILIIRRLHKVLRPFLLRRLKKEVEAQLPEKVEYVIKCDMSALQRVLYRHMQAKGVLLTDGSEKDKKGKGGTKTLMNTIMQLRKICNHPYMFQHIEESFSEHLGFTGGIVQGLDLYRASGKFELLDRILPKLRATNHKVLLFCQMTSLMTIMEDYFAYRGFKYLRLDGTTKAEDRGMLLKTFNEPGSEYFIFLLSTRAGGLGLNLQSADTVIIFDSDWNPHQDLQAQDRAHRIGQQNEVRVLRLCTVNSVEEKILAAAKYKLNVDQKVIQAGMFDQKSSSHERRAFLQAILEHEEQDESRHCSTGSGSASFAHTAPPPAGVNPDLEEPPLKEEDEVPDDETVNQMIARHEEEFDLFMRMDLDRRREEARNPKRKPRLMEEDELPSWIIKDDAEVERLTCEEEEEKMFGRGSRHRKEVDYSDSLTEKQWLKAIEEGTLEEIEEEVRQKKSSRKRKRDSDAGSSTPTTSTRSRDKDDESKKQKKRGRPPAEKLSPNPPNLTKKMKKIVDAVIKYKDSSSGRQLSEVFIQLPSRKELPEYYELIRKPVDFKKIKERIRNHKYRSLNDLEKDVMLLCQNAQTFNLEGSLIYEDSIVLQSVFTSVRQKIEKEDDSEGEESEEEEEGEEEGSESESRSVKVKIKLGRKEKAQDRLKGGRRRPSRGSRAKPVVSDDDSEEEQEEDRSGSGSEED
UniProt Q12824: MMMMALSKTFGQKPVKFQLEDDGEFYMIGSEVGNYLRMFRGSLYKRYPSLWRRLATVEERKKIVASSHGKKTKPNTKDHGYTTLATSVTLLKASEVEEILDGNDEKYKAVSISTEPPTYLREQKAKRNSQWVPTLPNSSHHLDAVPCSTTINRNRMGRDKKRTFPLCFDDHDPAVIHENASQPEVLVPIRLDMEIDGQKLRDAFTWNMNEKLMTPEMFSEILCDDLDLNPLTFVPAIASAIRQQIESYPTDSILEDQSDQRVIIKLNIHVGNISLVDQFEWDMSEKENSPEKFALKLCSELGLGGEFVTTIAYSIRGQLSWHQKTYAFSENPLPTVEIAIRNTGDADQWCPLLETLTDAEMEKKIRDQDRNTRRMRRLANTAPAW
UniProt Q96GM5: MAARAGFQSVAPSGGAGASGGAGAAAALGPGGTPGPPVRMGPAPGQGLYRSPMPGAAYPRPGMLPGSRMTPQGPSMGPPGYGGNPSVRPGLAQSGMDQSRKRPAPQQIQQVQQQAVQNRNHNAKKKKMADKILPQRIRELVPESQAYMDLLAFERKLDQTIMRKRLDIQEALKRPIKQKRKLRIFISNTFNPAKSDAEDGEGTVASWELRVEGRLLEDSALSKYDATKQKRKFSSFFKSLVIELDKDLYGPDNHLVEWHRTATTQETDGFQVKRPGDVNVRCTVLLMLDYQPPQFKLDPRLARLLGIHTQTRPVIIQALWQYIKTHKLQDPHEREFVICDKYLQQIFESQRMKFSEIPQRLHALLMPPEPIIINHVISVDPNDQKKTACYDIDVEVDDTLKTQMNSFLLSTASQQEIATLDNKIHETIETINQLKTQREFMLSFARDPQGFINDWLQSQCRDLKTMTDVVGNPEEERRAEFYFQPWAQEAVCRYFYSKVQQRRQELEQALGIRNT
UniProt Q969G3: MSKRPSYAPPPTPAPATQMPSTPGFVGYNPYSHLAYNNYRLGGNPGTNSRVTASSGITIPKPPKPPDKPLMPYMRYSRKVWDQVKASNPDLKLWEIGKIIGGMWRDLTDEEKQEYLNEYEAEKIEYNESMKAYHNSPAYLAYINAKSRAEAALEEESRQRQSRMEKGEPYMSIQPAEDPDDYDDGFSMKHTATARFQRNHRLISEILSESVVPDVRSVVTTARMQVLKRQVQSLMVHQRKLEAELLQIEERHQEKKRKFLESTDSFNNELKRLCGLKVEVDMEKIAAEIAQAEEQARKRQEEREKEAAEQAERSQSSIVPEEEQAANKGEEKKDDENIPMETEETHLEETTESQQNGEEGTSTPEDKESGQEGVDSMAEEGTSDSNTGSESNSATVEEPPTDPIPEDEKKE
SMARCE1^ILV-A reconstituted in SMARCE1-knockout A549 cells (Q969G3, form named): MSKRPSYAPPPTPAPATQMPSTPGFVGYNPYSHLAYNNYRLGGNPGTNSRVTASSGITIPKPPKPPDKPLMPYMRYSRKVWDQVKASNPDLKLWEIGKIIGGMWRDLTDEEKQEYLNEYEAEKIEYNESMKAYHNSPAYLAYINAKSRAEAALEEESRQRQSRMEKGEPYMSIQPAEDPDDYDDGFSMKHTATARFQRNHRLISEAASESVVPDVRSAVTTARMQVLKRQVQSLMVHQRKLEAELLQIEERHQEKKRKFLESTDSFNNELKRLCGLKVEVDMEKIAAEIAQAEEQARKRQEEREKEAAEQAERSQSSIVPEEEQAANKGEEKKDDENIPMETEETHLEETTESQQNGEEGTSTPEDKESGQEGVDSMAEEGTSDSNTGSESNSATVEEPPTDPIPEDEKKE
SMARCE1^Y73F/170F (Q969G3, form named): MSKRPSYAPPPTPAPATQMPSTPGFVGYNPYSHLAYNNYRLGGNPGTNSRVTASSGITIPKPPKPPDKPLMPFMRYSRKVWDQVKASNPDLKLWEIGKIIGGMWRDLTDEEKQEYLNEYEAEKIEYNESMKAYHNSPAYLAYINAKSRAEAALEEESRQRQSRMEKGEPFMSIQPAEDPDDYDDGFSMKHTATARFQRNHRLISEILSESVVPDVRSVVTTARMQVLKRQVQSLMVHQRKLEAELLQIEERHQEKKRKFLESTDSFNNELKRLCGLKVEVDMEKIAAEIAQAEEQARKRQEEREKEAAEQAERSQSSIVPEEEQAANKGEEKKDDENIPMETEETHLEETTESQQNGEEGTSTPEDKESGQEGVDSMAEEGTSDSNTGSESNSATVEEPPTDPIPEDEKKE

The target of assay [1] is T1, Flag-tagged human GLDC (glycine decarboxylase), wild type (human) (UniProt P23378).
T1 sequence (chain, phosphotyrosine at Y993 and Y1008 after EGF stimulation or SRC overexpression): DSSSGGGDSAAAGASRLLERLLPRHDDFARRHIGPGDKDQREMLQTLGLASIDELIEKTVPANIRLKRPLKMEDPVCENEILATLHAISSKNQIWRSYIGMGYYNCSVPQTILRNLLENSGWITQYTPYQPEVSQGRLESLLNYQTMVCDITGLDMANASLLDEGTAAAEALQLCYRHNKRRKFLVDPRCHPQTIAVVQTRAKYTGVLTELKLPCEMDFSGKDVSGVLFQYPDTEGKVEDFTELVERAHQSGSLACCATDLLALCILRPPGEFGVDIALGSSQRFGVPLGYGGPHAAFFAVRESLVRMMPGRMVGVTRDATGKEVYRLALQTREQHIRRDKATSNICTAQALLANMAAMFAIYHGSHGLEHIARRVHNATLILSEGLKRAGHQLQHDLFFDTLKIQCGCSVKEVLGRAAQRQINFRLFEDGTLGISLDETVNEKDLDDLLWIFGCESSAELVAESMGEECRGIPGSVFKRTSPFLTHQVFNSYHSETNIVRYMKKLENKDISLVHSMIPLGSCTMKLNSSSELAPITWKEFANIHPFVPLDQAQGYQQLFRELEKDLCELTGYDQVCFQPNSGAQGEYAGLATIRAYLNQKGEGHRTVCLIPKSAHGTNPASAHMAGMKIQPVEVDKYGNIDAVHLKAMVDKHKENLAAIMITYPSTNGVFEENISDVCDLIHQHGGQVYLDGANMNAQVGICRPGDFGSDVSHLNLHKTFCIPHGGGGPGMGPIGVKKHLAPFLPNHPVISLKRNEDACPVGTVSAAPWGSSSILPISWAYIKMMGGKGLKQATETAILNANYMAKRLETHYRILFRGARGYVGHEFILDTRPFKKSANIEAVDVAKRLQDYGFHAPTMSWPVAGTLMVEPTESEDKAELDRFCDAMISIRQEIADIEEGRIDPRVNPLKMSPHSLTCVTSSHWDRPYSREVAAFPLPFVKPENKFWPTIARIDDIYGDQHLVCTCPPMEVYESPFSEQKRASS
The assay can be described thus: co-IP; tagged proteins overexpressed in transfected cells (HEK293/EGFR treated with EGF 100 ng/ml for 30 min, or co-expression of SRC); NP-40 lysis buffer, Protein-G Sepharose, 4 °C 3 h, washes with lysis buffer containing 500 mM NaCl; immunoblotting. (In general: A western blot detects proteins with antibodies after separation by electrophoresis.)

The target in assay [2] is T2, GLDC (glycine decarboxylase), endogenous (human (endogenous in A549)) (UniProt P23378).
T2 sequence (chain, phosphotyrosine at Y993 and Y1008 after EGF stimulation): T1 sequence (chain, phosphotyrosine at Y993 and Y1008 after EGF stimulation or SRC overexpression)
The assay can be described thus: co-IP; endogenous proteins, subcellular (nuclear) fractions of cells serum-starved 12 h and treated with or without EGF 100 ng/ml for 6 h; immunoblotting.

Assay [3] deals with T2, GLDC (glycine decarboxylase), endogenous (human (endogenous in A549)). The assay can be described thus: co-IP; endogenous proteins, A549 cells (serum-starved then EGF 100 ng/ml 30 min, or cultured with EGF 20 ng/mL 24 h; also control, GLDC-, DMAP1- or SMARCE1-deficient cells); NP-40 lysis buffer, washes with 500 mM NaCl; immunoblotting.
Assay [4] has as its target STAT1, endogenous (human (endogenous in A549)) (UniProt P42224). Described as above.
Assay [5] deals with STAT1, transfected (UniProt P42224). The assay can be described thus: co-IP; tagged proteins overexpressed in transfected cells (HEK293/EGFR treated with EGF 100 ng/ml for 30 min, or co-expression of SRC); NP-40 lysis buffer, Protein-G Sepharose, 4 °C 3 h, washes with lysis buffer containing 500 mM NaCl; immunoblotting.
In assay [6] the target is T2, GLDC (glycine decarboxylase), endogenous (human (endogenous in A549)). The assay can be described thus: co-IP; SMARCE1-knockout A549 cells reconstituted with SMARCE1 or its mutants, cultured with EGF 20 ng/mL 24 h; partners endogenous; immunoblotting.
Assay [7] has as its target STAT1, endogenous (human (endogenous in A549)) (UniProt P42224). The assay is described as above.
Assay [8] addresses T3, Flag-GLDC^Y993F/Y1008F (human) (UniProt P23378).
T3 sequence: T1 sequence (chain, phosphotyrosine at Y993 and Y1008 after EGF stimulation or SRC overexpression) with Y958F, Y973F
The assay can be described thus: co-IP; tagged proteins overexpressed in transfected cells (HEK293/EGFR treated with EGF 100 ng/ml for 30 min, or co-expression of SRC); NP-40 lysis buffer, Protein-G Sepharose, 4 °C 3 h, washes with lysis buffer containing 500 mM NaCl; immunoblotting.

In assay [9] the target is T4, GLDC^L998A/V999A (human) (UniProt P23378).
T4 sequence: T1 sequence (chain, phosphotyrosine at Y993 and Y1008 after EGF stimulation or SRC overexpression) with L963A, V964A
The description is as above.

Numbering of substitutions follows the chain as printed. Results are given in words; binding and its absence hold for the method and conditions named. In cells and extracts the contact can be indirect. Some entries that bind do so weakly or less than the wild type. For some assays here: Where a sequence is shown, tags or fusion partners need not be part of it.

With ACTL6A (from UniProt O96019 1-429), in assay [1], the binding entry is “no binding”. The same measure, in the same setting: then BRD9 (from UniProt Q9H8M2 1-597), with “no binding”.

As to “DMAP1, endogenous (from UniProt Q9NPF5 1-467)”, the binding result in [2] and in assay [3] was “binds” each time. On to “DMAP1^L145A/W152A (from UniProt Q9NPF5 1-467)”, for which, in [1], the binding entry is given as “no binding”. Same read-out and setting: then Importin α3 (from UniProt O00629 1-521), with “no binding”; and Importin α4 (from UniProt O00505 1-521), with “no binding”; and Importin α5 (from UniProt P52294 1-538), with “no binding”. Turning to Importin α6 (from UniProt O15131 1-539), the binding result in assay [1] is recorded as “no binding”.

In the case of Importin α7 (from UniProt O60684 1-536), in assay [1], the binding entry is given as “no binding”.

Consider SMARCA4 (from UniProt P51532 1-1647), for which the binding result in [1] is “no binding”. The same measure, in the same setting: then SMARCB1 (from UniProt Q12824 1-385), with “no binding”. As to SMARCD1 (from UniProt Q96GM5 1-515), the binding entry in assay [1] is on record as “no binding”. As to “SMARCE1, endogenous (from UniProt Q969G3 1-411)”, the binding entry in assay [2], in assay [3] and in assay [4] was “binds” in each case.

“SMARCE1^I206A/L207A/V218A, transfected (from UniProt Q969G3 1-411)”: the binding entry in assay [5] was “no binding”.

For the substance “SMARCE1^ILV-A reconstituted in SMARCE1-knockout A549 cells (from UniProt Q969G3 1-411)”, the figures for the binding entry in [6] and in assay [7] were “binds” and “no binding”, respectively. As to “SMARCE1^L93A/I96A/I99A (from UniProt Q969G3 1-411)”, the binding result in assay [1] was “no binding”.

Take “SMARCE1^Y73F, transfected (from UniProt Q969G3 1-411)”: the binding result in [1] is listed as “binds”. Turning to “SMARCE1^Y73F/170F (from UniProt Q969G3 1-411)”, the binding result in [5] was “binds”. Regarding “SMARCE1^Y170F, transfected (from UniProt Q969G3 1-411)”, the binding entry in [1] is “no binding”. Regarding “human DMAP1, wild type, transfected (from UniProt Q9NPF5 1-467)”, the binding entry in [8] is “no binding”; in assay [1] it was “binds”; in assay [9], “no binding”. In the case of “human SMARCE1, wild type, transfected (from UniProt Q969G3 1-411)”, the binding result in assay [8] is recorded as “no binding”; in [1] it was “binds”; in [9], “no binding”; in assay [5], “binds”. For “wild-type SMARCE1 reconstituted in SMARCE1-knockout A549 cells (from UniProt Q969G3 1-411)”, the binding result in [6] and in assay [7] was “binds” each time.
